Source: the supplement of paper PMC3334620
Whole data set: some 33,000 sequences, median “E-score (-0.5 to 0.5)” near -0.012, cut for the highest 2% near 0.27. The list shows a part of the results.

Each sequence was assayed against T1, Vhr1 (UniProt P40522) (assay: PBM E-score (8-mer binding enrichment) (E-score (-0.5 to 0.5)); higher = stronger / more preferred TF binding; most listed sequences are background and not binding sites). Settings: protein concentration: 200 nM; construct: GST-full length.
T1 sequence: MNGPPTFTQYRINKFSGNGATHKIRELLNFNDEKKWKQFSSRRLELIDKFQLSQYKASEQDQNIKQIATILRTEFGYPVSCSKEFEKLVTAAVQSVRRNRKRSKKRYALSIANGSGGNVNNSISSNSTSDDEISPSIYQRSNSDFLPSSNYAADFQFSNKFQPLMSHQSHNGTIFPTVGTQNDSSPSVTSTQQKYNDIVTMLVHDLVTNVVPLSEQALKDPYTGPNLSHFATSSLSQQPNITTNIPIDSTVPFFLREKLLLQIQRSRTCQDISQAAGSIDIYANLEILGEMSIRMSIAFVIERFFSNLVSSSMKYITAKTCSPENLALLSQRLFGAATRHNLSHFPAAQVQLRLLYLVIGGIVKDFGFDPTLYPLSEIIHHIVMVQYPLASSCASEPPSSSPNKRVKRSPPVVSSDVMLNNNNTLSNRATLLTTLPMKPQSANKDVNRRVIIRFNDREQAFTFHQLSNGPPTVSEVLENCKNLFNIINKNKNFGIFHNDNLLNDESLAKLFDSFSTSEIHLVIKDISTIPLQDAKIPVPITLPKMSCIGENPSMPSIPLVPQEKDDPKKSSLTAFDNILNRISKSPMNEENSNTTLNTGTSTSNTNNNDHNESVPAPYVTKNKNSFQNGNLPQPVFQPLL
Summary of the method: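 Yeast transcription factors, full-length or as DNA-binding domains, were expressed with a GST tag using PURExpress in vitro transcription/translation. At about 100-200 nM they were applied to universal all-10-mer Agilent arrays, double-stranded by primer extension on fresh or once-stripped slides. Fluorescent anti-GST detected bound protein, and masliner normalised the scans. E-scores for ungapped eight-base words, pooled with reverse complements, came from the Universal PBM Analysis Suite.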

| Sequence | PBM E-score |
| --- | --- |
| ACTTACTC | 0.0187 |
| CTCGAAAG | -0.0953 |
| ACTCCCAA | 0.112 |
| CGTTCTAG | -0.0895 |
| CTAGACAG | 0.225 |
| ACTAGTAC | 0.0895 |
| CAATGACA | 0.104 |
| CTACAGCA | -0.025 |
| GAGACCAA | 0.114 |
| AATTAAGA | -0.095 |
| GATCTTCA | 0.0661 |
| GCCTTTTA | -0.102 |
| ACTAAAAA | -0.127 |
| ACGATGAG | 0.22 |
| GTGTGCAA | 0.0918 |
| GAGACATA | 0.165 |
| CGATCACA | 0.162 |
| CCCTAATA | -0.207 |
| GCTGTTGA | -0.01 |
| GCATTCAA | -0.0919 |
| ACCTGGCA | -0.114 |
| ATCTTATG | 0.0103 |
| ACTGGGTA | -0.00457 |
| AAATTTCA | -0.322 |
| GTAGACCA | -0.0921 |

| Sequence | PBM E-score |
| --- | --- |
| AATATCGT | 0.113 |
| TGCTAACA | -0.13 |
| CGTTTCAA | -0.0649 |
| ATTGGATA | 0.0484 |
| GATGGCGA | 0.019 |
| AGAATACA | 0.105 |
| AGGGCAGG | -0.0947 |
| CGGGAGGA | -0.0156 |
| CAGGACAG | -0.0633 |
| ATCAAATC | 0.0983 |
| CCGATTAC | -0.0714 |
| AATTGAGA | -0.0698 |
| GAGGCCAA | -0.0163 |
| GGGCACCC | -0.0478 |
| ACCAGTAT | 0.0277 |
| TACCACTA | -0.093 |
| AAGAAACA | -0.161 |
| AACGGGGT | -0.0274 |
| GTAAAGAC | -0.133 |
| CACTGAGC | 0.0243 |
| GTGAGAAC | -0.113 |
| ATTAATTC | 0.0827 |
| AGGGATCA | 0.0551 |
| AGCAACCC | -0.112 |
| CCCTCAAA | -0.212 |

| Sequence | PBM E-score |
| --- | --- |
| TAGCCGCA | 0.00034 |
| GTCATGGA | 0.136 |
| CGGAAACC | -0.124 |
| ACAAATGC | -0.0549 |
| AGAAAACA | -0.196 |
| AAAGGACA | -0.0488 |
| CTCCAATA | -0.0124 |
| CAATTAGG | -0.011 |
| ACAAAGGA | -0.00459 |
| ATCGGCCG | 0.0135 |
| CACCTATA | -0.00283 |
| AGACGTCG | -0.0466 |
| GACGGTAA | -0.279 |
| GCCCTGAC | 0.0126 |
| TACACTGA | 0.26 |
| GAAGCGAA | -0.176 |
| ATGATTAA | 0.264 |
| TCACACGA | 0.201 |
| ACAGACTG | 0.0688 |
| ACATTCGT | -0.0276 |
| AGTATCGG | -0.101 |
| ACCTGCGC | -0.077 |
| AGGGACGC | -0.144 |
| AGGCATCG | -0.22 |
| AACGAGAT | -0.00314 |

| Sequence | PBM E-score |
| --- | --- |
| AGGCCCTC | -0.112 |
| CCAAGTAC | -0.133 |
| AGAACGTC | -0.0281 |
| GATTCTCA | 0.078 |
| CAGCCTTC | -0.126 |
| GTACTGGA | 0.166 |
| ACGTTGGA | 0.0766 |
| AGTCCCGC | -0.0151 |
| GAACGTAA | -0.117 |
| CCCTAACA | -0.0438 |
| AAGCTGTC | -0.135 |
| GAGTCTGC | -0.0315 |
| CATCGTTA | -0.045 |
| GACCTCAC | 0.0743 |
| TCCCAGCA | 0.0646 |
| CATTGTGG | 0.209 |
| ATTCATTA | 0.195 |
| CGGTATAA | -0.113 |
| AACAGATT | -0.157 |
| CGGGTTTC | -0.0806 |
| AAGCCGTG | -0.169 |
| AGGCCTAC | 0.0465 |
| ATATCCTG | 0.0294 |
| CGGTTAAC | -0.00424 |
| GGCTTACC | -0.116 |

| Sequence | PBM E-score |
| --- | --- |
| AAAACACT | -0.0304 |
| CTTCACTC | 0.101 |
| CGTTAAGC | -0.00068 |
| AAAACGCC | -0.0219 |
| GAGGGCCA | -0.0438 |
| CTGTTGCA | 0.121 |
| AGACTGGC | -0.213 |
| GCTATCTA | -0.0425 |
| ACCTCTTC | 0.0109 |
| AAAGTTTA | -0.176 |
| TAATTACA | -0.0388 |
| CGGGCGCA | 0.0279 |
| GATGAAAC | -0.0135 |
| CAGAAACG | 0.00094 |
| GCGTCACC | -0.234 |
| CTGAAATA | 0.00206 |
| AACCTTCC | -0.211 |
| ATCGAAAA | -0.11 |
| ATCCAAAA | -0.132 |
| GCTTCAGA | -0.132 |
| CCATAAGA | -0.0689 |
| CTCATGAG | 0.0895 |
| GAACTAGC | -0.118 |
| AAGGCCTG | -0.249 |
| AGCGGGGC | -0.123 |

| Sequence | PBM E-score |
| --- | --- |
| AGCGAATG | -0.0751 |
| ACCATACG | 0.0923 |
| GGTTTACA | -0.0121 |
| AAACATGC | 0.0612 |
| AGTAACGC | 0.00153 |
| ATTAGCTG | 0.0563 |
| AATCGGGT | 0.119 |
| ACAACACC | 0.0441 |
| CTTAAAAC | -0.173 |
| CATTAAAG | -0.125 |
| CGCCGGCG | 0.237 |
| CGCTAGAC | -0.253 |
| ACATAGGC | -0.122 |
| CCGATGTA | 0.0807 |
| CTTCTACC | -0.103 |
| ATAGCCAC | 0.113 |
| TATAGAAA | -0.163 |
| AAAGTACC | -0.136 |
| AGACCGTC | -0.136 |
| CCTCCGCG | 0.065 |
| GTTCGCAA | 0.00099 |
| AATATCAG | -0.0255 |
| ACTATAGT | 0.173 |
| CTGCGGGC | 0.0044 |
| CTGCGGCC | 0.00322 |

| Sequence | PBM E-score |
| --- | --- |
| GAAGTACC | -0.13 |
| GTCTCGCA | -0.00955 |
| GGCCCCCC | -0.143 |
| GAAATAGA | -0.00777 |
| CAGTCGTA | 0.132 |
| AAATTTCG | -0.24 |
| AGCAGCCT | -0.0896 |
| CCGTAAAA | -0.0726 |
| GGGTAAAA | -0.0529 |
| GACGGAAA | 0.0178 |
| CTTGCCCA | -0.177 |
| AGTCAGTG | 0.375 |
| AGGAAACC | -0.148 |
| ACACGGGG | 0.162 |
| CACCAACG | 0.116 |
| AAAGCTAC | -0.113 |
| CTCCTCTA | -0.189 |
| TCGTCTCA | -0.129 |
| GCATTCGA | 0.0505 |
| CCCCCGCG | 0.0616 |
| CAGCAAAA | 0.0669 |
| CTCTTACC | -0.0367 |
